Results on twelve compounds are retold here after the supplement of paper PMC4604168 (melanoma cell lines).

This is one part of the list. Many values rest on one well or one pass, so single values are uncertain.

Among the test systems are WM115; WM1716; WM1745; WM3526; WM3619; WM451Lu.
Experiment in all cases: cell count relative to DMSO control; melanoma cells; higher = more viable cells
Common to all, as to settings: library dose: low library concentration; 72 h
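Note: cell number obtained by counting DAPI-stained nuclei in high-throughput microscope images with image analysis software, screen run in 1,536-well plates.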

On to `CO[C@@H]1[C@H](N(C)C(=O)c2ccccc2)C[C@H]2O[C@]1(C)n1c3ccccc3c3c4c(c5c6ccccc6n2c5c31)C(=O)NC4` [Midostaurin] + COc1ccc(COc2ccc(Cc3cnc(N)nc3N)cc2OC)cc1 [GW2580] (first compound 0.08 µM, partner dose 1 µM), for which the cell count in the experiment with WM115 was 90.8%; with WM1716 it was 72.4%; in the experiment on WM1745, 89.4%; with WM3526, 94.5%; in the experiment on WM3619 it was 83.3%; in the experiment with WM451Lu, 92.6%.
Turning to `OCCn1cc(-c2cnc3nnn(Cc4ccc5ncccc5c4)c3n2)cn1` + Cn1cc(/C=C2\C(=O)Nc3cccnc32)c2ccccc21 [GW441756] (first compound 1 µM, partner dose 0.4 µM), the cell count came to 101% in the experiment on WM115; 80.7% in the experiment on WM1716; 113% in the experiment with WM1745; 112% in the experiment with WM3526; 114% in the experiment on WM3619; 104% in the experiment with WM451Lu.
For the compound `CN(C)S(=O)(=O)c1ccc2c(c1)/C(=C/c1cc3c([nH]1)CCCC3)C(=O)N2` + COc1cc(N2CCC(N3CCN(C)CC3)CC2)ccc1Nc1ncc(Cl)c(Nc2ccccc2S(=O)(=O)C(C)C)n1 [NVP-TAE684] (first compound 0.4 µM, partner dose 0.08 µM), the cell count in the experiment with WM115 stood at 76.4%; in the experiment with WM1716, 109%; in the experiment with WM1745, 70.7%; with WM3526, 78.1%; with WM3619 it was 105%; in the experiment on WM451Lu, 64.1%.
For `C[C@]1(c2nc3c(C(N)=O)cccc3[nH]2)CCCN1` [Veliparib] + CC(C)(C)c1cnc(CSc2cnc(NC(=O)C3CCNCC3)s2)o1 [SNS-032] (first compound 1.4 µM, partner dose 0.01 µM), the cell count with WM115 stood at 87%; in the experiment with WM1716 it was 90.2%; in the experiment with WM1745, 94.1%; with WM3526 it was 103%; in the experiment on WM3619, 79.5%; with WM451Lu, 92.9%.
On to `CN(C)S(=O)(=O)c1ccc2c(c1)/C(=C/c1cc3c([nH]1)CCCC3)C(=O)N2` + O=S(=O)(c1ccccc1)N(CC(F)(F)F)c1ccc(C(O)(C(F)(F)F)C(F)(F)F)cc1 [T0901317] (first compound 0.4 µM, partner dose 1.4 µM), for which the cell count with WM115 amounted to 78.6%; in the experiment on WM1716 it was 117%; in the experiment on WM1745, 71.3%; in the experiment with WM3526, 81.4%; in the experiment on WM3619 it was 100%; with WM451Lu, 112%.
On to `NC(=O)Nc1cc(-c2cccc(F)c2)sc1C(=O)N[C@H]1CCCNC1` + CN(NC(=O)CC(=O)NN(C)C(=S)c1ccccc1)C(=S)c1ccccc1 [STA4783] (first compound 0.02 µM, partner dose 0.006 µM), for which the cell count in the experiment with WM115 is 81.8%; in the experiment on WM1716, 69.5%; in the experiment on WM1745, 55.4%; in the experiment with WM3526, 85.8%; with WM3619, 48.4%; in the experiment with WM451Lu, 83.1%.
Regarding `NC(=O)Nc1cc(-c2cccc(F)c2)sc1C(=O)N[C@H]1CCCNC1` + COc1cc2ncnc(Nc3ccc(Oc4ccccc4)cc3)c2cc1OC [SrcI1] (first compound 0.02 µM, partner dose 2 µM), the cell count in the experiment with WM115 stood at 97.6%; in the experiment with WM1716, 102%; in the experiment with WM1745 it was 65.2%; with WM3526, 83.6%; with WM3619 it was 50.2%; with WM451Lu it was 96%.
For `C[C@]1(c2nc3c(C(N)=O)cccc3[nH]2)CCCN1` [Veliparib] + O=C(CCCCCCC(=O)Nc1ccccc1)NO [vorinostat] (first compound 1.4 µM, partner dose 0.08 µM), the cell count with WM115 amounted to 82.9%; in the experiment on WM1716, 88.5%; in the experiment on WM1745 it was 99.1%; in the experiment on WM3526 it was 91.2%; in the experiment on WM3619, 108%; in the experiment with WM451Lu, 91.8%.
In the case of `C[C@]1(c2nc3c(C(N)=O)cccc3[nH]2)CCCN1` [Veliparib] + NC(=O)Nc1cc(-c2cccc(F)c2)sc1C(=O)N[C@H]1CCCNC1 [AZD7762] (first compound 1.4 µM, partner dose 0.02 µM), the cell count with WM115 came out at 82.8%; in the experiment on WM1716, 79.5%; with WM1745 it was 101%; with WM3526 it was 80.5%; in the experiment on WM3619, 38.8%; with WM451Lu it was 117%.
Take `CN(C)S(=O)(=O)c1ccc2c(c1)/C(=C/c1cc3c([nH]1)CCCC3)C(=O)N2` + COc1ccc2c(c1)CCC1C2CCC2(C)C(NCCCCCCN3C(=O)C=CC3=O)CCC12 [U73122] (first compound 0.4 µM, partner dose 0.4 µM): the cell count with WM115 stood at 91.9%; in the experiment on WM1716 it was 102%; in the experiment on WM1745, 78.2%; in the experiment with WM3526, 101%; with WM3619, 105%; in the experiment with WM451Lu it was 84.8%.
Consider `OCCn1cc(-c2cnc3nnn(Cc4ccc5ncccc5c4)c3n2)cn1` + O=S(=O)(c1ccccc1)N(CC(F)(F)F)c1ccc(C(O)(C(F)(F)F)C(F)(F)F)cc1 [T0901317] (first compound 1 µM, partner dose 1.4 µM), for which the cell count was determined as 97.1% with WM115; 105% in the experiment on WM1716; 84.8% with WM1745; 109% in the experiment on WM3526; 87.8% in the experiment with WM3619; 82.3% in the experiment on WM451Lu.
With `C=CCn1c(=O)c2cnc(Nc3ccc(N4CCN(C)CC4)cc3)nc2n1-c1cccc(C(C)(C)O)n1` + O=S(=O)(c1ccccc1)N(CC(F)(F)F)c1ccc(C(O)(C(F)(F)F)C(F)(F)F)cc1 [T0901317] (first compound 0.02 µM, partner dose 1.4 µM), the cell count with WM115 came to 85.3%; in the experiment with WM1716, 82.4%; in the experiment with WM1745 it was 62.1%; with WM3526 it was 101%; in the experiment with WM3619, 73.2%; in the experiment on WM451Lu, 104%.
